Among the data in paper PMC12136788 are binding signal values, retold here.

To fix the notation:
T1: UNK ZnF1-3 (human, UniProt Q9C0B0 31-174)
T1 sequence: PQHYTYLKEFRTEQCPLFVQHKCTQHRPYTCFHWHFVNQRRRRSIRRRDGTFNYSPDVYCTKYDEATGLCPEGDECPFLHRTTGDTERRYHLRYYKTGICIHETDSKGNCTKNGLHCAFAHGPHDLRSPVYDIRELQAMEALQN

B1: chr7:35674789:35674790:-_ENSG00000122557_ENST00000396081|hu_hu|FALSE|FALSE (ssRNA)
RNA: GGGAGUUCUACAGUCCGACGAUCUCCAGCUUGGUGUAAAUAAACCAGUAGCAUGGCUCCCAUUACCAUGAUAAACCGACUAAAAGAAGAAUAGAAGUAUACAAUGCUAAGGAGAAUCGCAGCUCGUGAGAACGUGUACAUCCACAACAGAGGAUUGAGCAUCA
B2: chr17:45705486:45705487:-_ENSMUSG00000023944_ENSMUST00000024739|mus_hu|motif|central (ssRNA)
RNA: GGGAGUUCUACAGUCCGACGAUCAUUGGCUGUCCAGCCGUAGGUGCUGGUCACAAUGCAGCAAGGUGAAGACACAAGUCGGUUGGAGAUUGUCACCUUCUCAACCUUCUUAUCUAAGAUUUCUUUCAUGAGCUUGCAGAGGUUCAACAGAGGAUUGAGCAUCA
B3: 10179666_10186851_1820_CDS_ENSG00000130939_ENST00000377157|human|control|control (ssRNA)
RNA: GGGAGUUCUACAGUCCGACGAUCCUGCUUGAACACUUCUUCAUCCUGGUGAGUGGUUCUCACCAGUUCCUGAAUGAAGCCAUAUGGGAGAUUCCUACACAGCAUAUACGGCACUAGGAAGGACGGCUGCUGCAAGGACCUGGGCAACAGAGGAUUGAGCAUCA
B4: chr12:76453654:76453655:-_ENSG00000187109_ENST00000548044|hu_mus|FALSE|FALSE (ssRNA)
RNA: GGGAGUUCUACAGUCCGACGAUCUGGUUUCCACUCGCAUUCUUCUUCUGUAGGUUCAUAGAUUGCAUUAAUGAUCUCAAAUCGCUUAUCAAAUAAAGGCUGAUAGAGAACAGCAUACUUCCUCUCGAGAUCAUGAACUUCCUCCAACAGAGGAUUGAGCAUCA
B5: chrX:65951094:65951095:+_ENSMUSG00000000838_ENSMUST00000114657|mus_hu|FALSE|FALSE (ssRNA)
RNA: GGGAGUUCUACAGUCCGACGAUCCUGCCUUGAACUCUCCAGCUGCUUACUAGCUUCUUCAUUUCUCAUUAUCAGAGACAACUUAGUGCGCAGACUCCGAAAGUGCAUGUCAAUCAGCAUAUGUGCUCGCUUUGAGGUGACUUCCAACAGAGGAUUGAGCAUCA
B6: 150444430_150444550_3070_CDS_ENSG00000163125_ENST00000369068|human|control|control (ssRNA)
RNA: GGGAGUUCUACAGUCCGACGAUCUGAGAGACUGACACCAUCACUUGGAGUGCCCUUGCUGGGAGCCUGGCCAAAAUGCUUAUCAUCUGAGGGCUUACGUGAGGCGUUUUUAAGCAUAUUCUUAAAUUCAAUCGUCGACGUGGUCAACAGAGGAUUGAGCAUCA
B7: chr4:13698614:13698615:+_ENSMUSG00000006586_ENSMUST00000098257|mus_hu|FALSE|FALSE (ssRNA)
RNA: GGGAGUUCUACAGUCCGACGAUCACUCAGUGCUCUCCAAGUGUUUCUUUUGACAGAUAUCAUUCUCCACCAAUCGCUCUGCUAAUUUCCUCUCUCCUUUUCUGACUGGGACAGAGAUUAUGUUCACCAGCCCAGAGAUCAAUCCAACAGAGGAUUGAGCAUCA
B8: 168329133_168329253_1585_CDS_ENSMUSG00000040596_ENSMUST00000169324|mouse|control|control (ssRNA)
RNA: GGGAGUUCUACAGUCCGACGAUCAUCCAGCACCUGCAGCUGGGAGGUCAGGCCCCCUGGGAUGAUCACCAUGUCCGUGUUCAUGUUCUCCAUGGAACUCUUCACAGAGUCAGUGGCAUGGCACCGGAAGCCAUUCAGGAUCAGCAACAGAGGAUUGAGCAUCA
B9: 31773265_31773385_1100_CDS_ENSMUSG00000020300_ENSMUST00000109412|mouse|control|control (ssRNA)
RNA: GGGAGUUCUACAGUCCGACGAUCGUUCAAGCUAUCUUCCAUCCAGGAUUUUGGAGCAAAGGCUGAGCUAGGGCGAGCAUACUUCUGGAGCUGAAUAUGAUUGCUUGCGAAAUUUUUCUUCAAAGGUGAGAUUGAGUUCAGGGGCAACAGAGGAUUGAGCAUCA
B10: chr19:36967751:36967752:+_ENSMUSG00000024811_ENSMUST00000025729|mus_mus|motif|central (ssRNA)
RNA: GGGAGUUCUACAGUCCGACGAUCAAAGUGAUACUUAGGGAUACUUGUACCAUCACUCUCUUCUUAUGGAACACUGAAGACGGAUUACAGACAUGUCAUUAGCAUAUGGAAAUAUAAAAUACACUACUUUUUUUUCCUUUUAGACAACAGAGGAUUGAGCAUCA
B11: chr5:162900210:162900211:+_ENSG00000072571_ENST00000358715|hu_hu|motif|central (ssRNA)
RNA: GGGAGUUCUACAGUCCGACGAUCUUCGAUGUAUUCCAAGAGUUUUUCUGUUUCAGAUUUUUCAUCAAUCUUUUCUUUCUCGGUUGAAACAAGUUUUCCCUCCAGUUGGGCUAUUUUCCCUUGAGACUCUUCGAGACUCCUUUGCAACAGAGGAUUGAGCAUCA
B12: 60623417_60623537_136_5pUTR_ENSMUSG00000026014_ENSMUST00000140485|mouse|control|control (ssRNA)
RNA: GGGAGUUCUACAGUCCGACGAUCCCCUCGGCCCUCCCGGAGCCCUGCGCUAGGCAGCAGCUGCUCGCGCCUCCAGUCGCCGCCGCCGCCGCCUCUCCAGGGGCGACGCUCCUCUCCCGAACGCUGAGAGCGCCCGCAGCUCCCCAACAGAGGAUUGAGCAUCA
B13: chr2:48026839:48026840:+_ENSG00000116062_ENST00000540021|hu_hu|hu_hu_hu_mus_False|1_8 (ssRNA)
RNA: GGGAGUUCUACAGUCCGACGAUCAUAGUGAGCCACUAGCGUCCUAAAUCUGGAACAGUGGCGGUCAUCCGAAAACUGGCCGAUGAAAAACUUGCCCAGUGAAGUGUCCACAAAGCAAACACCAUACGCACGAGUAUGGCCAGACAACAGAGGAUUGAGCAUCA
B14: chrX:71099370:71099371:-_ENSMUSG00000031391_ENSMUST00000102871|mus_mus|FALSE|FALSE (ssRNA)
RNA: GGGAGUUCUACAGUCCGACGAUCUUUAUUUUUCGUGGAGUAGGGUCAUCAAAGCUAACUGCUAUAAAAUGGAGAAACCACCUAGAGACUCAGACAUCUGCCUACACACUAGUGGCAUAUGGGGAAAGGGCAACGGCACAAACUCAACAGAGGAUUGAGCAUCA
B15: chr9:33280828:33280829:+_ENSG00000086065_ENST00000223500|hu_mus|motif|central (ssRNA)
RNA: GGGAGUUCUACAGUCCGACGAUCAGUCCCAGAAUACUUCUCUUGUUGUUUCACAUCACGUGCUGGAAUGUUGUAAGUCGGCGAAGCGGGAAUCUGCGGCAGUCCAAAUUCAUCCACCAGCACGCCAUCCUUGUUUUUUGUGUCCAACAGAGGAUUGAGCAUCA
B16: chr10:1063573:1063574:+_ENSG00000107937_ENST00000545048|hu_mus|FALSE|FALSE (ssRNA)
RNA: GGGAGUUCUACAGUCCGACGAUCACUAUGUUUUUGCUGGGUGUUUACUUUGGAUAAAAUGGUUGAAGUUACAAUGAUACAUUGUACUACAGGUUUAGAAAAUAAUUUAAGAGUAGUUUAAGCUCUGAUAAACCCUAAAUGUAACAACAGAGGAUUGAGCAUCA
B17: 108478272_108478392_758_CDS_ENSMUSG00000066357_ENSMUST00000068700|mouse|control|control (ssRNA)
RNA: GGGAGUUCUACAGUCCGACGAUCCCGACCCCCAGGCACCCGGAGGUCCCCCACCUUCCAGAGACGAACACUUCGGUCUUCUGAAGCAGUUGCCAGCAGGCCCUUGCUUUCCAGGUAUGACAUGCUAAAGAUGACACCCACAUGCAACAGAGGAUUGAGCAUCA
B18: chr9:26905460:26905461:-_ENSG00000137055_ENST00000397292|hu_hu|FALSE|FALSE (ssRNA)
RNA: GGGAGUUCUACAGUCCGACGAUCUAUUCUCUUUUUUUAAUUAUCUGUUAUCAGUCAUGUCAAAUGUGAGGAAAAAAACACUAAUCAAUUAAAAAUAUCCGUCCCUCUUCCCCACUGCUACAGCAAAUUUAGGAUAAAUCUACACAACAGAGGAUUGAGCAUCA
B19: 125021761_125021881_2370_CDS_ENSMUSG00000014444_ENSMUST00000067252|mouse|control|control (ssRNA)
RNA: GGGAGUUCUACAGUCCGACGAUCGAGCUGCAUGAACGGUCUGUGGAAGUAGUGCAGCUGCAGGAUGCAGGCCAGCAGGAAGAAGCCAGGGAUGAGGAUACUGGAAAAGAGCUCCGACACACUGAACUGCUCCAGGCCCAGGUCCAACAGAGGAUUGAGCAUCA
B20: chr9:58722913:58722914:-_ENSMUSG00000032340_ENSMUST00000068664|mus_mus|FALSE|FALSE (ssRNA)
RNA: GGGAGUUCUACAGUCCGACGAUCGCGACAUACACGUUUGCUCCACACCCACUGGAAGGAAGCUGCUAGGCCCCAGCUCAACUAGGACACGACAAGACACACAAUGGUUUAGUUUCCAGAGUCACAGGAAAAUAUAAGACAUAUCAACAGAGGAUUGAGCAUCA
B21: chr1:231413285:231413286:+_ENSG00000116906_ENST00000366647|hu_mus|FALSE|FALSE (ssRNA)
RNA: GGGAGUUCUACAGUCCGACGAUCUUUGUGGCAGAGUAAGUCCUUUGUGACUGUCACUAUGGAACUGUGUUUUCUACAACUGCUCCAUUAUUGUUAUAGUUUUGCAGUGGCUGGUUUUCCUAUUGGCUUCUUACAUCCGAGCAUCAACAGAGGAUUGAGCAUCA
B22: 154753136_154754442_220_CDS_ENSMUSG00000053870_ENSMUST00000066568|mouse|control|control (ssRNA)
RNA: GGGAGUUCUACAGUCCGACGAUCCUCAAGGGAACAAAGUGUUGAUCCUCCAUUUCCAAUUUUGGUCCCAGCAGGAUCUGGAAAAACAUGGUAUUGAACUCCAAGAGGCAAUUCCCUUUUCUUCAGCUUCUCGGACAACUGUUGCAACAGAGGAUUGAGCAUCA

This is one part of the list.

The test has as its target T1, UNK ZnF1-3. Put plainly: nsRBNS (natural sequence RNA bind-n-seq); RBNS binding buffer (assumed for nsRBNS): 25 mM Tris pH 7.5, 150 mM KCl, 3 mM MgCl2, 0.01% Triton X-100, 500 ug/ml BSA, 20 U/ml SUPERase-In, 4 C; UNK is unkempt and MSI1 is Musashi-1; names of the RNAs are library labels; protein concentration not given here; high values mean tight binding.
Consider B1, for which the binding signal is 1.35 enrichment R.

For B2, the binding signal stood at 0.858 enrichment R.

Turning to B3, the binding signal worked out at 0.917 enrichment R.

B4: the binding signal was 0.85 enrichment R.

In turn, B5 came in with a binding signal of 0.798 enrichment R.

Molecule B6 yielded a binding signal of 0.984 enrichment R.

As to B7, the binding signal came out at 0.815 enrichment R.

As to B8, the binding signal was 1.34 enrichment R.

In the case of B9, the binding signal is 2.27 enrichment R.

As to B10, the binding signal came to 1.05 enrichment R.

Molecule B11 registered a binding signal of 0.371 enrichment R.

Consider B12, for which the binding signal came to 1.08 enrichment R.

With B13, the binding signal was determined as 0.92 enrichment R.

In the case of B14, the binding signal turned out to be 1.8 enrichment R.

Turning to B15, the binding signal was found to be 0.848 enrichment R.

B16 registered a binding signal of 1.17 enrichment R.

B17: the binding signal stood at 1.54 enrichment R.

With B18, the binding signal turned out to be 2.03 enrichment R.

For the molecule B19, the binding signal came out at 1.76 enrichment R.

Consider B20, for which the binding signal is 1.38 enrichment R.

For B21, the binding signal was found to be 0.267 enrichment R.

Turning to B22, the binding signal came to 0.622 enrichment R.
